Results as given in the supplement of paper PMC10724272.
MIC of invasive clinical C. tropicalis isolates, CLSI broth microdilution (fluconazole 0.12-256 mg/L, up to 1,024 for the azole-resistant cluster and its neighbour group; other ranges not stated); higher = less susceptible. Call: susceptible or wild type [S] / resistant or non-wild type [R] by CLSI breakpoints or cut-offs; intermediate and dose-dependent carry no call. '<=' and '>=' at the end values are inferred; the source marks only some of them. Isolates are numbered anew.

Columns and labels:
Assay in all cases: CLSI broth microdilution.
itraconazole = compound: CCC(C)n1ncn(-c2ccc(N3CCN(c4ccc(OCC5COC(Cn6cncn6)(c6ccc(Cl)cc6Cl)O5)cc4)CC3)cc2)c1=O [itraconazole]
micafungin = compound: CCCCCOc1ccc(-c2cc(-c3ccc(C(=O)N[C@H]4C[C@@H](O)[C@@H](O)NC(=O)[C@@H]5[C@@H](O)[C@@H](C)CN5C(=O)[C@H]([C@H](O)CC(N)=O)NC(=O)[C@H]([C@H](O)[C@@H](O)c5ccc(O)c(OS(=O)(=O)O)c5)NC(=O)[C@@H]5C[C@@H](O)CN5C(=O)[C@H]([C@@H](C)O)NC4=O)cc3)no2)cc1 [micafungin]
anidulafungin = compound: CCCCCOc1ccc(-c2ccc(-c3ccc(C(=O)N[C@H]4C[C@@H](O)[C@@H](O)NC(=O)[C@@H]5[C@@H](O)[C@@H](C)CN5C(=O)[C@H]([C@@H](C)O)NC(=O)[C@H]([C@H](O)[C@@H](O)c5ccc(O)cc5)NC(=O)[C@@H]5C[C@@H](O)CN5C(=O)[C@H]([C@@H](C)O)NC4=O)cc3)cc2)cc1 [anidulafungin]
posaconazole = compound: CC[C@@H]([C@H](C)O)n1ncn(-c2ccc(N3CCN(c4ccc(OC[C@@H]5CO[C@@](Cn6cncn6)(c6ccc(F)cc6F)C5)cc4)CC3)cc2)c1=O [posaconazole]
caspofungin = compound: CC[C@H](C)C[C@H](C)CCCCCCCCC(=O)N[C@H]1C[C@@H](O)[C@@H](NCCN)NC(=O)[C@@H]2[C@@H](O)CCN2C(=O)[C@H]([C@H](O)CCN)NC(=O)[C@H]([C@H](O)[C@@H](O)c2ccc(O)cc2)NC(=O)[C@@H]2C[C@@H](O)CN2C(=O)[C@H]([C@@H](C)O)NC1=O [caspofungin]
voriconazole = compound: C[C@@H](c1ncncc1F)[C@](O)(Cn1cncn1)c1ccc(F)cc1F [voriconazole]
amphotericin B = compound: C[C@@H]1[C@H](O)[C@@H](C)/C=C/C=C/C=C/C=C/C=C/C=C/C=C/[C@H](O[C@@H]2O[C@H](C)[C@@H](O)[C@H](N)[C@@H]2O)C[C@@H]2O[C@](O)(C[C@@H](O)C[C@@H](O)[C@H](O)CC[C@@H](O)C[C@@H](O)CC(=O)O[C@H]1C)C[C@H](O)[C@H]2C(=O)O [amphotericin B]
flucytosine = compound: Nc1[nH]c(=O)ncc1F [flucytosine]
fluconazole = compound: OC(Cn1cncn1)(Cn1cncn1)c1ccc(F)cc1F [fluconazole]

Row | Test System | MIC (itraconazole) | MIC (micafungin) | MIC (anidulafungin) | MIC (posaconazole) | MIC (caspofungin) | MIC (voriconazole) | MIC (amphotericin B) | MIC (flucytosine) | MIC (fluconazole)
1 | Candida tropicalis isolate 350 (ERG11 copies: 2, Erg11p: no key change) | 0.12 mg/L [S] | 0.03 mg/L [S] | 0.06 mg/L [S] | 0.12 mg/L [S] | 0.03 mg/L [S] | 0.03 mg/L [S] | 0.5 mg/L [S] | ≤ 0.06 mg/L [S] | 0.5 mg/L [S]
2 | Candida tropicalis isolate 351 (ERG11 copies: 2, Erg11p: no key change) | 0.25 mg/L [S] | 0.06 mg/L [S] | 0.12 mg/L [S] | 0.25 mg/L [S] | 0.06 mg/L [S] | 0.12 mg/L [S] | 1 mg/L [S] | ≤ 0.06 mg/L [S] | 1 mg/L [S]
3 | Candida tropicalis isolate 352 (ERG11 copies: 2, Erg11p: no key change) | 0.25 mg/L [S] | 0.03 mg/L [S] | 0.03 mg/L [S] | 0.5 mg/L [R] | 0.03 mg/L [S] | 0.25 µg/mL | 2 mg/L [S] | ≤ 0.06 mg/L [S] | 2 mg/L [S]
4 | Candida tropicalis isolate 353 (ERG11 copies: 2, Erg11p: no key change) | 0.12 mg/L [S] | 0.03 mg/L [S] | 0.06 mg/L [S] | 0.12 mg/L [S] | 0.03 mg/L [S] | 0.12 mg/L [S] | 1 mg/L [S] | ≤ 0.06 mg/L [S] | 2 mg/L [S]
5 | Candida tropicalis isolate 354 (ERG11 copies: 2, Erg11p: Y132F, S154F (homozygous)) | 0.5 mg/L [S] | 0.03 mg/L [S] | 0.03 mg/L [S] | 0.5 mg/L [R] | 0.03 mg/L [S] | 2 mg/L [R] | 1 mg/L [S] | ≤ 0.06 mg/L [S] | 64 mg/L [R]
6 | Candida tropicalis isolate 355 (ERG11 copies: 2, Erg11p: no key change) | 0.25 mg/L [S] | 0.03 mg/L [S] | 0.12 mg/L [S] | 0.25 mg/L [S] | 0.03 mg/L [S] | 0.12 mg/L [S] | 0.5 mg/L [S] | ≤ 0.06 mg/L [S] | 2 mg/L [S]
7 | Candida tropicalis isolate 356 (ERG11 copies: 2, Erg11p: no key change) | 0.12 mg/L [S] | 0.03 mg/L [S] | 0.12 mg/L [S] | 0.12 mg/L [S] | 0.03 mg/L [S] | 0.06 mg/L [S] | 1 mg/L [S] | ≤ 0.06 mg/L [S] | 1 mg/L [S]
8 | Candida tropicalis isolate 357 (ERG11 copies: 2, Erg11p: no key change) | 0.25 mg/L [S] | 0.03 mg/L [S] | 0.03 mg/L [S] | 0.25 mg/L [S] | 0.03 mg/L [S] | 0.12 mg/L [S] | 1 mg/L [S] | ≤ 0.06 mg/L [S] | 1 mg/L [S]
9 | Candida tropicalis isolate 358 (ERG11 copies: 2, Erg11p: Y132F, S154F (heterozygous)) | 0.5 mg/L [S] | 0.03 mg/L [S] | 0.06 mg/L [S] | 1 mg/L [R] | 0.03 mg/L [S] | 4 mg/L [R] | 1 mg/L [S] | ≤ 0.06 mg/L [S] | 64 mg/L [R]
10 | Candida tropicalis isolate 359 (ERG11 copies: 2, Erg11p: no key change) | 0.5 mg/L [S] | 0.06 mg/L [S] | 0.06 mg/L [S] | 1 mg/L [R] | 0.03 mg/L [S] | 0.5 µg/mL | 1 mg/L [S] | ≤ 0.06 mg/L [S] | 8 mg/L [R]
11 | Candida tropicalis isolate 360 (ERG11 copies: 2, Erg11p: no key change) | 0.25 mg/L [S] | 0.03 mg/L [S] | 0.03 mg/L [S] | 0.25 mg/L [S] | 0.03 mg/L [S] | 0.12 mg/L [S] | 1 mg/L [S] | ≤ 0.06 mg/L [S] | 2 mg/L [S]
12 | Candida tropicalis isolate 361 (ERG11 copies: 2, Erg11p: no key change) | 0.06 mg/L [S] | 0.03 mg/L [S] | 0.03 mg/L [S] | 0.06 mg/L [S] | 0.03 mg/L [S] | 0.03 mg/L [S] | 0.5 mg/L [S] | ≤ 0.06 mg/L [S] | 1 mg/L [S]
13 | Candida tropicalis isolate 362 (ERG11 copies: 2, Erg11p: no key change) | 0.5 mg/L [S] | 0.03 mg/L [S] | 0.12 mg/L [S] | 0.5 mg/L [R] | 0.03 mg/L [S] | 0.25 µg/mL | 1 mg/L [S] | ≤ 0.06 mg/L [S] | 2 mg/L [S]
14 | Candida tropicalis isolate 363 (ERG11 copies: 2, Erg11p: no key change) | 0.5 mg/L [S] | 0.06 mg/L [S] | 0.12 mg/L [S] | 0.5 mg/L [R] | 0.06 mg/L [S] | 0.25 µg/mL | 1 mg/L [S] | ≤ 0.06 mg/L [S] | 4 µg/mL
15 | Candida tropicalis isolate 364 (ERG11 copies: 2, Erg11p: no key change) | 0.06 mg/L [S] | 0.015 mg/L [S] | ≤ 0.015 mg/L [S] | 0.03 mg/L [S] | 0.03 mg/L [S] | 0.03 mg/L [S] | 0.5 mg/L [S] | ≤ 0.06 mg/L [S] | 0.5 mg/L [S]
16 | Candida tropicalis isolate 365 (ERG11 copies: 2, Erg11p: no key change) | 0.25 mg/L [S] | 0.03 mg/L [S] | 0.12 mg/L [S] | 0.25 mg/L [S] | 0.06 mg/L [S] | 0.12 mg/L [S] | 0.5 mg/L [S] | ≤ 0.06 mg/L [S] | 2 mg/L [S]
17 | Candida tropicalis isolate 366 (ERG11 copies: 8, Erg11p: Y132F, S154F (heterozygous)) | 0.5 mg/L [S] | 0.03 mg/L [S] | 0.06 mg/L [S] | 0.5 mg/L [R] | 0.03 mg/L [S] | ≥ 8 mg/L [R] | 1 mg/L [S] | ≤ 0.06 mg/L [S] | 512 mg/L [R]
18 | Candida tropicalis isolate 367 (ERG11 copies: 2, Erg11p: no key change) | 0.12 mg/L [S] | 0.03 mg/L [S] | 0.12 mg/L [S] | 0.12 mg/L [S] | 0.06 mg/L [S] | 0.12 mg/L [S] | 0.5 mg/L [S] | 0.12 mg/L [S] | 1 mg/L [S]
